In all, about 45,000 compounds went through this assay and about 200 (0.44%) were called active. About 7% were inconclusive and are not listed. Calls come from the whole dose curve; as a rule, active = well fitted activation curve with a large enough effect; inconclusive = small, poorly fitted or top-dose-only effect; inactive = no such curve, though single readings can be large or run the other way. The list shows a part of the results.
Assay: qHTS of TDP-43 Inhibitors: NCGC Sytravon Library Screen; note: nearly all actives have a fitted effect of over 55% in size; for growth rescue (activation): 0% is about no effect
Settings: yeast TDP-43 toxicity rescue, BacTiter-Glo growth, 24 h; series mostly up to 46.1 µM; growth rescue (activation): at the top concentration
Method in brief: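 TDP-43-expressing yeast, pregrown in raffinose, seeded at OD600 0.02 in galactose medium with compound for 24 hr at 30 deg C. Growth read by BacTiter-Glo luminescence, so rescue of toxicity appears as activation.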
Potency is the fitted concentration of half-maximal effect.

Compound | growth rescue (activation) | Potency
Cc1ccc(NC(=O)CNc2ccccc2N2CCCC2=O)cc1S(=O)(=O)N1CCOCC1 | inactive: 23% | –
COc1ccc(C2/C(=C(/O)c3cnn(-c4ccccc4)c3C)C(=O)C(=O)N2CCN(C)C)cc1OC (stereo not given) | inactive: 17.3% | –
CN(Cc1ccccc1)c1ccc(N2C(=O)CCCC2=O)cc1[N+](=O)[O-] | inactive: 5.18% | –
Cc1cn(CCOc2ccc(Cl)cc2)c(=O)[nH]c1=O | inactive: -0.263% | –
CC1(C(=O)NC2CCCCCC2)CCN1C(=O)C1(c2ccccc2)CC1 (stereo not given) | inactive: 21.7% | –
OCCCCNCc1cc(Br)ccc1OCc1ccccc1 | inactive: -1.12% | –
O=c1c(-c2ccccc2)nnc2sc(COc3ccc(Br)cc3)nn12 | inactive: -20% | –
CCOC(=O)/C(=C\c1ccc(OC(F)F)cc1)C1=Nn2c(nnc2-c2ccc(Cl)cc2)SC1 | inactive: 9.47% | –
CSCCNC(=O)C1(C)CCN1C(=O)CCc1ccccc1 (stereo not given) | inactive: 8.36% | –
CCOC(=O)c1c(CCl)nc2ccccc2c1-c1ccccc1 | inactive: 8.92% | –
NC(=O)NCc1ccccc1F | inactive: 5.15% | –
COc1cccc(-n2c(=O)c3sccc3n(Cc3cc(=O)n4cc(Cl)ccc4n3)c2=O)c1 | inactive: 8.55% | –
O=C(CCN1C(=O)S/C(=C\c2ccccc2)C1=O)N1CCCCC1 | inactive: 20.8% | –
NC(=O)/C(=C/c1ccc2c(c1)OCO2)NC(=O)c1ccco1 | inactive: -3.32% | –
COc1ccc(NC(=O)CCOc2ccccc2F)cc1S(=O)(=O)N1CCCCC1 | inactive: 13.1% | –
Cc1nc2ccccc2n2c(-c3ccccc3)c3c(=O)n(C)c(=O)n(C)c3c12 | inactive: 18.9% | –
CCOC(=O)N/N=C\c1ccc(OC(=O)c2ccc3c(c2)OCO3)cc1 | inactive: 22.8% | –
CCC(OC(=O)CN1C(=O)c2ccccc2C1=O)C(=O)NC1CCCC1 (stereo not given) | inactive: -4.83% | –
CCOC(=O)c1[nH]c(C)c(/C(O)=C2\C(=O)C(=O)N(CCCN(C)C)C2c2cccnc2)c1C (stereo not given) | inactive: -6.72% | –
CC(NC(=O)c1cnc2ccccc2n1)c1ccccc1 (stereo not given) | inactive: 35.2% | –
Cc1nc(SCC(=O)NC2CCS(=O)(=O)C2)c2c3c(sc2n1)CCC3 (stereo not given) | inactive: 4.14% | –
CN(c1ccccc1)S(=O)(=O)c1nnc(NC(=O)C2CCCCC2)s1 | inactive: 18.6% | –
COc1ccccc1OCCSc1nc2ccc([N+](=O)[O-])cc2s1 | inactive: 8.24% | –
NS(=O)(=O)c1ccc(CCNC(=O)CSCc2ccccc2)cc1 | inactive: 14.3% | –
c1ccc(-c2nc3nc4ccccc4nc3n2CC2CCCO2)cc1 (stereo not given) | inactive: 18.2% | –
Cc1ccc(-c2nnn(CC(=O)NCCc3ccc4c(c3)OCO4)n2)cc1 | inactive: 16.1% | –
Cn1cnc(S(=O)(=O)N2CCCCC2c2cc(C(=O)Nc3cccc4c3CCCC4)no2)c1 (stereo not given) | inactive: 2.54% | –

Compound | growth rescue (activation) | Potency
COc1ccccc1NS(=O)(=O)c1cc(C(=O)NCCC(C)C)ccc1F | inactive: 3.72% | –
N#C/C(=C\c1ccc(N2CCOCC2)o1)C(=O)NC1CCCCC1 | inactive: 21.9% | –
Cc1cc(C)c2oc(C(=O)Nc3ccc(S(=O)(=O)N4CCCC(C)C4)cc3)cc(=O)c2c1 (stereo not given) | inactive: 8.94% | –
CC(C)NC(=O)c1cccc2c(-c3ccc(F)c(F)c3)coc12 | inactive: 28.2% | –
CCN(CC)S(=O)(=O)c1ccc(Cl)c(NC(=O)COc2ccccc2[N+](=O)[O-])c1 | inactive: 1.99% | –
CC(=O)c1ccc(N2Cc3ccccc3C2)cc1 | inactive: 0.808% | –
CCc1ccc(OCC(=O)N(Cc2ccco2)Cc2ccccc2Cl)cc1 | inactive: 5.15% | –
Cc1ccc(S(=O)(=O)N2CCOCC2)cc1NC(=O)CSc1nnnn1C | inactive: 4.07% | –
CCOC(=O)Cc1nnc(Nc2cc(C)ccc2C)c2ccccc12 | inactive: -1.7% | –
COc1cc(Cl)ccc1OCc1cc(C(=O)N(C)C2CC(C)(C)NC(C)(C)C2)no1 | inactive: 3.9% | –
COCC1CCN(C(=O)c2ccc(OC)c(OC3CCN(C(C)C)CC3)c2)CC1 | inactive: -0.197% | –
C=CCN=c1scc(-c2ccc(F)cc2)n1/N=C/c1ccccn1 | – | active: 11.2 µM
NC(=O)N/N=C(/CCCCCC/C(=N\NC(N)=O)c1ccccc1)c1ccccc1 | inactive: 4.73% | –
NC(=O)c1ccsc1NC(=O)COC(=O)/C=C/c1ccc([N+](=O)[O-])cc1 | inactive: -1.64% | –
CCOc1ccc(N=C(/C(C(=O)C(=O)N2CCOCC2)=C(\O)c2ccccc2)c2ccccc2)cc1 | inactive: 17.2% | –
CC1(C)C2CCC1(CS(=O)(=O)Nc1ccc(S(=O)(=O)N3CCCC3)cc1)C(=O)C2 (stereo not given) | inactive: 7.56% | –
COc1ccc(C(=O)N2CCCC(Nc3ccc(C)c(C)c3)C2)c(OC)n1 (stereo not given) | inactive: 13.1% | –
CCCS(=O)(=O)NC(=O)C1(C)CCN(C(=O)c2c(F)cccc2F)C1 (stereo not given) | inactive: -5.03% | –
COCCn1c(C)cc(C(=O)CSc2cc(C)c3ccc(OC)cc3n2)c1C | inactive: 22.8% | –
Cc1cc(C(=O)N/N=C/C=C/c2ccccc2)c(C)o1 | inactive: -2.62% | –
COC(=O)c1ccc(NC(=O)c2c(C(=O)Nc3ccccc3)sc3nc(C)cc(=O)n23)cc1 | inactive: -7.36% | –
Cc1ccc([N+](=O)[O-])cc1NC(=O)CSc1nncn1-c1ccccn1 | inactive: 8.27% | –
CCOc1ccc(C(=O)NCC(=O)NCC2CCCCC2)cc1OCC | inactive: 6.64% | –
Cc1cccn2c(=O)c3cc(C(=O)NC4CCCC4)c(=N)n(CCCN4CCOCC4)c3nc12 | inactive: -5.69% | –
O=c1oc2ccccc2nc1/C=C(O)/C=C/c1ccc(F)cc1 | inactive: -33.9% | –
COC(=O)c1sc2nc(C)nc(SCC(=O)N3CCC(C(=O)O)CC3)c2c1C | inactive: 0.532% | –
Cc1c(NCc2cccnc2)cccc1C(=O)O | inactive: 2.73% | –

Compound | growth rescue (activation) | Potency
COc1cccc(OC)c1C(=O)N1CCN(Cc2cccnc2)CC1 | inactive: -8.5% | –
Cc1cc(Br)ccc1NC(=O)CNC(=O)CSc1nccn1C | inactive: 8.83% | –
COc1ccccc1N1CCN(C(=O)c2coc(=O)c(Br)c2)CC1 | inactive: -2.33% | –
COc1ccc(CN2CCCC(CO)(Cc3cccc(Cl)c3)C2)cc1OC (stereo not given) | inactive: 1.52% | –
CCOC(=O)c1ccc(S(=O)(=O)N2CCN(C(=O)CSc3nc4ccccc4o3)CC2)cc1 | inactive: 8.92% | –
CC(=O)Nc1ccc(C(=O)N2CCCCC2c2cc(C(=O)NCc3cccnc3)no2)cc1 (stereo not given) | inactive: 12.5% | –
NC(=O)c1cc(-c2csc(-c3cccnc3)n2)ccc1O | inactive: 14.7% | –
COc1ccccc1N1CCN(C(=O)c2cc(=O)c3cc(C)cc(C)c3o2)CC1 | inactive: 11.7% | –
Cc1oc2cc(O)ccc2c(=O)c1-c1ccccc1 | inactive: 18.5% | –
CC(C)Cn1c(/C=C/c2ccccc2)nc2ccccc21 | inactive: 10.3% | –
Cc1cc(C)cc(NC(=S)N(Cc2cccc(Br)c2)CC2CCC(C(=O)O)CC2)c1 (stereo not given) | inactive: 14.6% | –
COc1ccc2oc(C(=O)c3ccccc3)c(NC(=O)CN3CCN(C)CC3)c2c1 | inactive: 25.8% | –
CC(C)C(NC(=O)C1CC(=O)N(Cc2ccccc2)C1)c1nc2ccccc2[nH]1 (stereo not given) | inactive: -1.14% | –
COc1ccccc1C(=O)OCCNC(=O)Cn1cnc2c1c(=O)n(C)c(=O)n2C | inactive: -19.6% | –
C/C(CC(=O)NCc1ccc(Cl)cc1)=N\NC(=O)COc1ccc(C)cc1Br | inactive: -10.6% | –
Cc1cccc(C(=O)NCC(c2ccc(F)cc2)N2CCOCC2)c1 (stereo not given) | inactive: 27.7% | –
COCCNC(=O)CN(c1ccc(F)cc1)S(=O)(=O)c1ccc2c(c1)OCCO2 | inactive: 11.3% | –
Cc1ccc(C)c(OCc2cc(C(=O)NC3CCOC(C)(C)C3)no2)c1 (stereo not given) | inactive: 20% | –
COc1cc(CNCCc2ccc(S(N)(=O)=O)cc2)ccc1OCC(=O)NC(C)(C)C | inactive: 9.63% | –
CCN1CCN(C(=S)NCc2ccc(C)cc2)CC1 | inactive: 9.44% | –
Oc1ccc(/C=N/N=C/c2ccc(O)c(O)c2)cc1O | inactive: -0.268% | –
CC(C)c1ccc(NC(=O)COC(=O)C2=COCCO2)cc1 | inactive: 11.3% | –
Cc1ccc(S(=O)(=O)N2CCC(C(=O)O)CC2)cc1 | inactive: -10.2% | –
CCOC(=O)c1c(NC(=O)COc2c(C)cc(Cl)cc2Cl)sc2c1CCCC2 | inactive: -4.34% | –
Cc1ccc(C(=O)Nc2ccc(Cl)cc2C(F)(F)F)c(Cl)c1 | inactive: 13% | –
O=C(CSc1ccccc1)NC1=NCCS1 | inactive: 2.3% | –
Cc1[nH]n(-c2ccccc2)c(=O)c1-c1ccccc1 | inactive: 15.6% | –

Compound | growth rescue (activation) | Potency
CCC(C)(C)NC(=O)C(c1cccn1C)N(C(=O)Cn1nnc2ccccc21)c1ccc(NC(C)=O)cc1 (stereo not given) | inactive: 3.87% | –
Cc1cc(C(F)(F)F)n2[nH]c(=O)c(N=Nc3ccccc3)c2n1 | inactive: 26.4% | –
O=C(COC(=O)COc1ccc(Cl)cc1)Nc1ccc(N2CCOCC2)cc1 | inactive: -14.9% | –
CCOC(=O)N1CCC(=NNC(=O)NC2CCCCC2)CC1 | inactive: 1.61% | –
CC1CN(C)C(C)C/C1=N\Oc1ccc([N+](=O)[O-])cc1 (stereo not given) | inactive: -0.946% | –
Cc1ccc2c(c1)C(=O)C(=O)N2CC1COc2ccccc2O1 (stereo not given) | inactive: -28.5% | –
O=C(Nc1nc(-c2ccccc2)cs1)c1cccc([N+](=O)[O-])c1C(=O)O | inactive: 13.5% | –
COc1ccc(-n2cc(CNCCc3cscn3)c(-c3ccccc3Cl)n2)cc1 | inactive: 0.59% | –
CC(C(=O)NCc1cccc(Cl)c1)N1C(=O)c2ccccc2C1=O (stereo not given) | inactive: 6.97% | –
COc1ccc(CNC(=O)C(c2ccccc2F)N(C(=O)c2csnn2)C2CC2)cc1 (stereo not given) | inactive: -11% | –
Cc1ccc2c(COC(=O)C3CC(=O)N(c4ccc5c(c4)OCCO5)C3)cc(=O)oc2c1 (stereo not given) | inactive: 10.3% | –
COc1ccccc1CNC(=O)COC(=O)c1ccc(C(=O)c2ccccc2)cc1 | inactive: 14.5% | –
O=[N+]([O-])c1cc(S(=O)(=O)N2CCCCCC2)ccc1F | inactive: -0.796% | –
CCCNC(=O)C1(C)CCCN(Cc2ccccc2F)C1 (stereo not given) | inactive: 6.65% | –
O=C(CN1C(=O)NC2(CCCc3ccccc32)C1=O)N1CCc2ccccc2C1 (stereo not given) | inactive: -22.1% | –
COc1cc(CNc2nc3ccccc3s2)cc(OC)c1OC | inactive: 2.64% | –
COc1cc(Cl)c(C)cc1NC(=O)c1cc(S(=O)(=O)N(C)C)ccc1N1CCCC1 | inactive: 2.18% | –
C#CC[N+](C)(C)CCCCCCCCC | inactive: -7.13% | –
O=C(CCCCCn1c(=O)c2sccc2n(CC(=O)Nc2cccc(Cl)c2)c1=O)NCc1ccc2c(c1)OCO2 | inactive: -5.76% | –
Cn1c(N)c(N=O)c(=O)n(C)c1=O | inactive: 3.23% | –
COCCn1cnc2c1c(=O)n(CC(=O)OCC#N)c(=O)n2Cc1ccccc1 | inactive: 8.64% | –
COCc1c(C(=O)Nc2ccc3nc(N4CCOCC4)sc3c2)oc2ccccc12 | inactive: 5.93% | –
CC(=O)Nc1ccc(S(=O)(=O)NC2CCSc3ccccc32)cc1 (stereo not given) | inactive: -6.8% | –
Cn1cccc1CC(=O)N/N=C/c1cccc([N+](=O)[O-])c1 | inactive: 5.78% | –

— PubChem BioAssay AID1347073 (National Center for Advancing Translational Sciences (NCATS), 2019)
